Data taken from PubChem BioAssay AID624296 (National Center for Advancing Translational Sciences (NCATS), 2012).
Screen size: about 350,000 compounds; about 9,900 (2.8%) were called active. Inconclusive means that the source gave no clear call. Such entries were picked first, then a sample of the others. The call rests on the fitted dose curve; in most records, active means well fitted activation curve with a large enough effect; inconclusive means small, poorly fitted or top-dose-only effect; inactive means no such curve, though single readings can be large or run the other way. No potency is given beside an inconclusive call; the fits are too rough.

Assay: A quantitative high throughput screen for small molecules that induce DNA re-replication in MCF 10a normal breast cells. Further: nearly all actives have a fitted effect of over 50% in size. On activity, positive = re-replication: % of control where 0% means no effect.
Conditions: MCF 10A DNA re-replication, Hoechst nuclear intensity, 48 h; activity, positive = re-replication: at 46.1 µM (top of the series)
Potency means the concentration at half of the fitted maximal effect; tags describe the fitted curve by direction and shape.

Row | Structure (SMILES) | activity, positive = re-replication | Potency
1 | Cc1cc(C)n(/N=C/c2ccccc2)c(=O)c1C#N | inactive: -1.42% | –
2 | COC(=O)NC(=C(Cl)Cl)S(=O)(=O)c1ccccc1 | – | active: 7.31 µM
3 | O=C(CN1CCN(C/C=C/c2ccccc2)CC1)NCc1ccc(Cl)cc1 | – | inconclusive [activator, single point]
4 | Cc1ccccc1N/N=C1\CCCNC1=O | inactive: 0.555% | –
5 | Cc1ccc2oc(C(=O)Nc3nnc(CC(C)C)s3)c(C)c2c1 | inactive: 2.3% | –
6 | COc1cccc(C(=O)Nc2ccc(S(=O)(=O)N3CCCCC3)cc2)c1OC | – | inconclusive [activator, full curve, poor fit]
7 | COc1cccc(C2CC(c3cccc(Br)c3)n3ncnc3N2)c1 (stereo not drawn) | – | inconclusive [activator, partial curve, poor fit]
8 | O=C(Nc1cc(Cl)ccc1-n1cncn1)c1cncc(Br)c1 | – | inconclusive [activator, full curve, poor fit]
9 | Fc1ccc2nc(Nc3nc4cc5c(cc4s3)OCO5)sc2c1 | – | inconclusive [activator, single point]
10 | O=C(c1ccc([N+](=O)[O-])o1)N1CCN(c2nc3c(F)cc(F)cc3s2)CC1 | – | inconclusive [activator, single point]
11 | COc1cccc(C(=O)Nc2cc3c(cc2Br)OCCCO3)c1 | – | inconclusive [activator, partial curve, poor fit]
12 | N#CC1CCN(C(=O)c2ccc3c(Cl)c4c(nc3c2)CCCC4)CC1 | inactive: -1.51% | –
13 | Cc1cc(O)c(-c2cc(C(=O)Nc3sc4c(c3C(=O)NCc3ccco3)CCC4)[nH]n2)cc1C | – | inconclusive [activator, partial curve, poor fit]
14 | CNS(=O)(=O)c1cn(CC(=O)NCc2cccc(OC)c2)cc1S(=O)(=O)NC | inactive: -1.19% | –
15 | COc1ccc2c(c1)O[C@@]1(CCCC[C@@H]1C)CC2=O | inconclusive: 52.6% [activator] | –
16 | CC(O)c1nc2ccccc2n1CCCCOc1ccccc1 (stereo not drawn) | inactive: 21.3% | –
17 | O=C(C[C@H]1C[C@H](C(=O)N2CCCCC2)[C@@]2(CCc3ccccc3)c3[nH]c4ccc(Cl)cc4c3CCN2C1=O)NCCN1CCOCC1 | – | inconclusive [activator, single point]
18 | C=CCNC(=S)NC(=O)c1ccc(C)c(Br)c1 | inactive: -3.08% | –
19 | C/C=C(\CS(=O)(=O)c1ccccc1)S(=O)(=O)c1ccccc1 | – | inconclusive [activator, partial curve, poor fit]
20 | Cc1ccc(Cn2ccc(NC(=O)c3cc(C4CC4)on3)n2)cc1 | – | inconclusive [activator, single point]
21 | Fc1cccc2sc(Nc3nc4cc5c(cc4s3)OCCO5)nc12 | – | active: 5.17 µM
22 | CCC(CO)Oc1cc(NCc2ccc(C)c(C)c2)c2ncn(C(C)C)c2c1 (stereo not drawn) | – | active: 14.6 µM
23 | CC(C)c1nc(C(=O)N2CCc3c([nH]c4ccccc34)C2c2ccccn2)cs1 (stereo not drawn) | – | inconclusive [activator, single point]
24 | Cc1cc2oc(=O)cc(CSc3nnc(-c4cccs4)o3)c2cc1C(C)C | – | inconclusive [activator, single point]
25 | COC(=O)N/N=C/c1cc(Cl)c(OCc2ccccc2F)c(OC)c1 | – | inconclusive [activator, partial curve, poor fit]

Row | Structure (SMILES) | activity, positive = re-replication | Potency
26 | CCCCCNC(=O)Cc1ccc(S(=O)(=O)N2CCOCC2)s1 | inactive: -0.754% | –
27 | O=S(=O)(Nc1ccc2c(c1)oc1ccccc12)N1CCCC1 | inactive: -15.5% | –
28 | COc1ccccc1CCC(=O)Nc1cc(S(=O)(=O)N2CCCCC2)ccc1N1CCN(C)CC1 | – | inconclusive [activator, partial curve, poor fit]
29 | CCc1ccc(C(C)NC(=O)c2cc(C)oc2C)cc1 (stereo not drawn) | – | inconclusive [activator, single point]
30 | COc1ccc(-c2csc(NC(=S)NC(=O)c3ccc4ccccc4c3)n2)cc1OC | – | inconclusive [activator, full curve, poor fit]
31 | Cc1ccc(CC(=O)NCCN2CCOCC2)cc1 | inactive: -3.52% | –
32 | NC(=S)N/N=C/c1ncc(C(F)(F)F)cc1Cl | – | inconclusive [activator, full curve, poor fit]
33 | C=CCNc1nc(N2CCCC2)nc2ccccc12 | inactive: 0.909% | –
34 | COc1ccc(-c2cc(C(=O)NNC(=O)c3csc(N4CCOCC4)n3)c3ccccc3n2)cc1 | – | inconclusive [activator, partial curve, poor fit]
35 | COc1cc(Cl)c(C)cc1NC(=O)CSc1ccc(NC(C)=O)cc1 | inactive: 2.7% | –
36 | CCCNS(=O)(=O)c1ccc(CCC(=O)N2CCN(c3ccc(F)cc3)CC2)cc1 | inactive: 24.2% | –
37 | O=C(Nc1cccc(C(=O)N2CCN(c3cccc(Cl)c3)CC2)c1)c1ccccc1 | – | inconclusive [activator, partial curve, poor fit]
38 | O=C(O)Cn1c(=O)c2cccn2c2ccccc21 | inactive: -2.49% | –
39 | CC1Cc2ccccc2N1c1ncnc2c1nnn2Cc1ccccc1Cl (stereo not drawn) | inactive: 0.0534% | –
40 | O=C(Nc1ccc(C(=O)N2CCCCC2)cc1)c1ccccc1Cl | inactive: -0.406% | –
41 | CCc1cccc2c1NC(=O)C2(O)N1CCCC(C)C1 (stereo not drawn) | – | inconclusive [activator, single point]
42 | CCC(=O)N1N=C(c2ccc(NS(=O)(=O)c3ccc(C)cc3)cc2)CC1c1ccco1 (stereo not drawn) | – | inconclusive [activator, partial curve, poor fit]
43 | CCCn1c(=O)c2c(nc3n2CCN3Cc2ccco2)n(C)c1=O | inactive: 2.54% | –
44 | COc1cccc(CSc2nc3ccccc3cc2C=O)c1 | – | active: 13 µM
45 | C/C(=C\c1ccccc1)C(=O)Nc1ccc(S(=O)(=O)Nc2ncccn2)cc1 | – | inconclusive [activator, partial curve, poor fit]
46 | CCOC(=O)N1CCN(C(=O)C2CCCN(Cc3nc(-c4ccc(Cl)cc4)oc3C)C2)CC1 (stereo not drawn) | inactive: 19.2% | –
47 | CCOC(=O)c1sc2nc(C)nc(NCc3ccc(F)cc3)c2c1C | – | inconclusive [activator, single point]
48 | COc1ccc(N2CCN(Cc3csc(C)c3-c3ccc(C)cc3)CC2)cc1 | inactive: 20.8% | –
49 | CCN(CC)S(=O)(=O)c1cc(C(=O)Nc2ccccc2[N+](=O)[O-])ccc1Cl | – | inconclusive [activator, single point]
50 | CCc1ccc(-c2cn(C3CCCCC3)c(=S)[nH]2)cc1 | – | inconclusive [activator, single point]

Row | Structure (SMILES) | activity, positive = re-replication | Potency
51 | O=[N+]([O-])c1c(NCc2ccco2)ccc2nonc12 | – | inconclusive [activator, partial curve, poor fit]
52 | CN(C)c1ccc(NC(=S)NC(=O)/C=C/c2ccco2)cc1 | – | inconclusive [activator, single point]
53 | O=c1c2cc(F)ccc2sn1-c1ccc(F)cc1 | – | inconclusive [activator, single point]
54 | CCCCCCSc1ccc([C@H]2N[C@@](CC(C)C)(C(=O)OC)[C@H]3C(=O)N(C)C(=O)[C@@H]23)cc1OC | – | inconclusive [activator, single point]
55 | O=C(c1ccc(F)cc1)C(CCCCCC(CN1CCOCC1)C(=O)c1ccc(F)cc1)CN1CCOCC1 (stereo not drawn) | – | inconclusive [activator, single point]
56 | CCOC(=O)C1(Cc2cccc(Cl)c2)CCCN(C(=O)c2ccoc2C)C1 (stereo not drawn) | – | inconclusive [activator, single point]
57 | CCN(CC)CC(=O)Nc1sc2c(c1C(=O)c1ccccc1C)CCC2 | – | inconclusive [activator, single point]
58 | Cc1ccccc1C(=O)NNC(=O)c1ccncc1 | inactive: -0.0166% | –
59 | O=C(NCC1CC1)c1ccccc1Cl | inactive: 1.23% | –
60 | Cc1nonc1OCCNC(=O)C12CC3CC(CC(C3)C1)C2 | inactive: 0.0568% | –
61 | O=C(NC1CCCCCC1)c1cc2c(=O)n3ccccc3nc2s1 | – | active: 20.6 µM
62 | CN(C)c1ccc(CNc2ccc3c(c2)ncn3C)cc1 | inactive: 24.4% | –
63 | O=C(NCCc1ccccc1)c1cccnc1N1CCCCCC1 | – | active: 25.9 µM
64 | O=C(COC(=O)Cc1ccc(-c2ccccc2)cc1)NCc1ccccc1 | – | inconclusive [activator, single point]
65 | Cc1cc(C)n2nc(CNS(=O)(=O)c3ccc(C)c(C)c3)nc2n1 | inactive: 0.063% | –
66 | C[C@H](CO)N1C[C@H](C)[C@@H](CN(C)S(=O)(=O)c2cccs2)Oc2ccc(NC(=O)Nc3ccccc3)cc2C1=O | – | inconclusive [activator, single point]
67 | FC(F)(F)c1cc(-c2ccco2)nc(NCc2cccs2)n1 | – | inconclusive [activator, single point]
68 | Cc1noc(C)c1CSCC(=O)Nc1nc2ccc(S(C)(=O)=O)cc2s1 | inactive: 16% | –
69 | CCCC(=O)Nc1nc2ccc(NC(=O)c3ccc(Br)o3)cc2s1 | – | inconclusive [activator, partial curve, poor fit]
70 | CC1(CCc2ccc3c(c2)OCO3)NCCc2c1[nH]c1ccccc21 (stereo not drawn) | – | inconclusive [activator, partial curve]
71 | Cc1cccc(-c2nsc(SCC(=O)Nc3cc(C)on3)n2)c1 | – | inconclusive [activator, partial curve]
72 | CCOc1ccc(NC(=O)c2c[nH]n3c(=O)cc(C4CCN(C(=O)OC(C)(C)C)CC4)nc23)cc1 | – | inconclusive [activator, single point]
73 | O=C(O)c1ccc(NC2=C(n3nnc4ccccc43)C(=O)c3ccccc3C2=O)cc1 | – | inconclusive [activator, single point]
